Test results taken from patent US20260217837A1, “FGFR3 BINDING MOLECULES AND METHODS OF USE THEREOF” (Regeneron Pharmaceuticals, Inc., priority 2023, published 2026).

Columns and labels:
mouse FGFR3b = target: T1, mouse FGFR3b (Mus musculus, UniProt Q61851); test: Biacore binding to mouse FGFR3b; details: 25 C
T1 construct: biotinylated human or mouse FGFR3b-ecto.mmH, human FGFR3c-ecto.mmH or Fel-d 1.mmH; mmh (C)
T1 sequence (Q61851 21-371 isoform Q61851-2): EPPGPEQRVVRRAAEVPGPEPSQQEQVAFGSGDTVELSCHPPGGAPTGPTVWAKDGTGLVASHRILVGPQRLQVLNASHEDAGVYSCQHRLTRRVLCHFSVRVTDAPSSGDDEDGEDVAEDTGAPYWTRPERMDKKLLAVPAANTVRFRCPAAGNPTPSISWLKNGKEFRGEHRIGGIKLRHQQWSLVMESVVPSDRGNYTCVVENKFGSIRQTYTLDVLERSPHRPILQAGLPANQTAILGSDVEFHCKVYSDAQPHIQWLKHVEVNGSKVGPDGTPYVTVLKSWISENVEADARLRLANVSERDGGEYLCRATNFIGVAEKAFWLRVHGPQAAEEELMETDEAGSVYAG
Method: Affinity and mechanism of action of binding of anti-FGFR3 antibodies to FGFR3 isoforms were determined by Biacore analysis. In brief, in-house generated monoclonal anti-human Fc antibody was immobilized on the surface of a CM-5 sensor chip. Different concentrations of FGFR3 antibodies were injected at 50 μL/min for 4 min and the assay was performed at 25° C. The mAb binding response was monitored and, for low affinity receptors, steady-state binding equilibrium was calculated. Kinetic association (ka) and dissociation (kd) rate constants were determined by processing and fitting the data to a 1:1 binding model using Scrubber 2.0 curve fitting software. Binding dissociation equilibrium constants (KD) and dissociative half-lives (t1/2) were calculated from the kinetic rate constants using the formula: KD (M)=kd/ka; and t1/2 (min)=(ln2/(60*kd). Some KD values were derived using the steady state equilibrium dissociation constant; When no KD values could be derived, it was marked as NB (no binding observed) or IC (inconclusive affinity determination due to low specific RU signal).
The binding affinities of BiP063N2 and its parental antibodies to FGFR3 isoforms from different species were assessed via Biacore analysis as described in Section 8.1.7, the results of which are summarized in FIG. 7.

[1] = test system: BaF3 cells expressing the double mutant FGFR3 S249C+V557M; test: BaF3 cell viability, FGFR3 S249C+V557M; type: cell-based; details: 72 hours, FGF1/heparin
From the text: cDNA expressing FGFR3 mutants (S249C, S248C, Y375C, V555M, V555L, S249C+V555M, or S249C+V555L) were synthesized and cloned into pLVX Lenti-viral vector (Thermo Fisher). Viral particles were generated by lipofectamine transfection of LentiX 293T cells using Lenti-X packaging single shots following manufacturer's protocol (Clontech/Takara) and concentrated using Lenti-X concentrator and titer determined using Lenti-X p24 rapid titer kit (Clontech/Takara). BaF3 cells were transduced with virus at ~0.3 MOI.
For cell proliferation assays, engineered BaF3/hFGFR3 cells grown in complete medium were washed and plated in IL-3-free culture media±5 μg/ml heparin and 1 nM human FGF1. Cells were plated out at 1×10^5 cells/well into 96-well plates, followed by the addition of 1:3 serially diluted antibodies as indicated in figures. After addition of antibodies, cells were incubated at 37° C. for 72 h followed by the addition of CellTiter-Glo™ (Promega) reagent. The luminescent signal was detected by Envision plate reader (PerkinElmer). Data was analyzed using Prism software (GraphPad). […]

[2] = test system: UMUC14 cells (FGFR3 S249C); test: UMUC14 spheroid cell proliferation assay (CellTiter-Glo 3D); type: cell-based, human
Method: (§1) Two human bladder cancer cell lines, UMUC14 (Sigma-Aldrich) and RT4 (ATCC), which express an S249C mutation of FGFR3 or express TACC3-FGFR3 fusion mutation, respectively, were maintained in culture according to the suppliers' recommendations. 7500 UMUC14 or 5000 RT4 bladder cancer cells were seeded in U-bottom low attachment 96-well spheroid plate (Corning) in culture medium (MEM medium with 10% FBS, 1% non-essential amino acids, Pen/Strep). Cells were cultured for 24-48 hours at 37° C. 5% CO2 to allow tumor spheroid formation. Tumor spheroids were treated with antibodies at concentrations ranging from 100 nM to 15.2 pM with 1:3 serial dilution as indicated in the figures. Cells were cultured for 5-6 days, and then subjected to CellTiter-Glo 3D viability assays (Promega) following the manufacturer's protocol. Luminescence signal was read on PE Envision plate reader. Cell proliferation was expressed as percentages of untreated controls. Data were analyzed using GraphPad Prism software using three parameter nonlinear curve fit.

[3] = test system: RT4 cells (FGFR3-TACC3 fusion); test: RT4 spheroid cell proliferation assay (CellTiter-Glo 3D); type: cell-based, human
Method: as §1

[4] = test system: UMUC14 tumors (FGFR3 S249C); test: In vivo tumor growth inhibition, UMUC14 xenograft; parameters: species or system SCID mice
From the text: Tumor cells (5×10^6 UMUC14 or RT112 in 50% Matrigel) were implanted subcutaneously (s.c.) into the right flank of 6 to 8-week-old female SCID mice (Jackson Laboratory). Once tumors were established (~200 mm^3 in volume), mice were randomized into treatment groups (n=10 mice per group) and injected intraperitoneally (i.p.) twice per week with anti-FGFR3 antibodies or isotype control at indicated doses. Tumor volume was expressed in mm^3 using the formula: V=0.5×a×b^2 where a and b were the long and short diameters of the tumor, respectively. Tumor sizes were monitored twice weekly. All procedures were conducted according to the guidelines of the Regeneron Institutional Animal Care and Use Committee. All data were analyzed using GraphPad Prism and tumor sizes were graphed as mean±SEM.

[5] = test system: MAPK phosphorylation in BaF3 cells expressing WT hFGFR3b; test: Western blot, FGF1/heparin induced MAPK phosphorylation in BaF3 WT hFGFR3b cells; type: cell-based; details: 100 nM antibody overnight, 100 nM FGF1 and 10 ug/ml heparin 15 min
Method: To evaluate receptor phosphorylation and downstream signaling, cells were serum starved overnight in the presence or absence of indicated antibodies followed by ligand (100 ng/ml human FGF1 and 10 μg/ml heparin) stimulation for 15 min at 37° C. Equal amounts of cell lysates were analyzed by SDS-PAGE. Blots were incubated with pMAPK, MAPK or actin antibodies followed by incubation with HRP secondary antibody. For FGFR3 phosphorylation, equal amounts of cell lysates were incubated with pY100 Sepharose beads overnight and non-specific binding was removed by washes with lysis buffer. Immunoprecipitated proteins were analyzed by reducing or non-reducing SDS-PAGE and blotted with FGFR3 antibody.

B1: mAb063: parental anti-FGFR3 antibody of BiP063N2, inhibitory; anchor mAb (antibody)
heavy: QVQLQESGPGLVKPSETLSLTCTVSGDSINSYFWSWIRQLPGKELEWIGHIYSSGSTRYNPSLQSRVTISIDTSKNQFSLKLSSVTAADTAVYYCARGASAVDYWGQGTLVTVSSASTKGPSVFPLAPCSRSTSESTAALGCLVKDYFPEPVTVSWNSGALTSGVHTFPAVLQSSGLYSLSSVVTVPSSSLGTKTYTCNVDHKPSNTKVDKRV[human IgG4 Fc with S228P (EU numbers) cut from this listing]
light: EIVLTQSPGTLSLSPGERATLSCRTSQSISSGYLAWYQQKPGQAPRLLIYGASRRATGIPDRFSGSGSGTDFTLTISRLEPEDFVVYYCQQYGSSPYTFGQGTKLEIKRTVAAPSVFIFPPSDEQLKSGTASVVCLLNNFYPREAKVQWKVDNALQSGNSQESVTEQDSKDSTYSLSSTLTLSKADYEKHKVYACEVTHQGLSSPVTKSFNRGEC
binding to monomeric mouse FGFR3b (mouse FGFR3b): shown to bind
growth of BaF3 cells expressing FGFR3 S249C+V557M [1]: robustly inhibited the growth
antiproliferative activity in UMUC14 spheroid proliferation assay ([2]; FGFR3 S249C, 5 to 6 days): potent inhibitory activity
activity on UMUC14 cell proliferation, IgG1 backbone ([2]; IgG1 backbone): complete loss of activity
activity on UMUC14 cell proliferation, IgG4s backbone ([2]; IgG4s backbone): partial
antiproliferative activity in RT4 spheroid proliferation assay ([3]; FGFR3-TACC3 fusion, 5 to 6 days): modest inhibitory activity
impact of IgG subclass on activity on RT4 cell proliferation ([3]; IgG backbones compared): modest effect on IC50
UMUC14 tumor growth after discontinuation of dosing ([4]; BiP063N2 6.65 mg/kg or mAb063 5 mg/kg, dosing discontinued day 32, monitored until day 46): sustained tumor growth suppression
UMUC14 tumor growth ([4]; mAb063 10 and 3 mg/kg, BiP063N2 13.3 and 4 mg/kg (same molar), i.p. twice per week): tumor regression
pMAPK after FGF1/heparin stimulation, WT hFGFR3b [5]: no increases in pMAPK
